Assay results from the supplement of paper PMC11417369.
This is one part of the list.

test system: PfSIP2 AP2 domain 1 (GST-tagged); test: gcPBM binding intensity (ln(normalized median fluorescence intensity)); higher = stronger DNA binding
In short: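 The binding buffer was 1× PBS containing 1% milk, 0.2 mg/ml BSA, 0.5% salmon testes DNA and 0.03% Triton X-100. In it, GST-tagged P. falciparum DNA-binding domains expressed in E. coli were applied for 1 h to an Agilent 4 × 180k array of primer-extended double-stranded 36-bp intergenic genomic probes plus negative controls. Binding intensity, read with Alexa488 anti-GST antibody and a 488 nm scan, is the highest Masliner-normalised natural-log median intensity across replicate spots of either probe orientation.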

Sequence | gcPBM binding intensity (ln)
AAATCACATAAAACATAATCAAATGAAATATAATCA [CACACA_negctrl_site123] | 6.62
TAAATATTATTATATACATGCACTTACAACTTTTTT [TGCATGCA_site877] | 8.6
ACTGTAAATTTATTCGGTACACATATAAATAATATT [XGTACX_site7346] | 7.41
ATTATTTTTAAAAATTGTACAGTATAAGAGAGAAAT [XGTACX_site7094] | 7.65
TATTGTAAAAAGATTACACACGTTCTATATACTTTT [CACACA_site5379] | 6.86
AATAAAAAAATATATTGTACTAATAATTATATGTTT [XGTACX_site2246] | 6.98
TTAATGGCAAAATAGGCACACACACCGATACATATA [CACACA_site8263] | 6.93
ACAGTAGCCAGTAACTGTACGGATTGTAGAGATCAG [XGTACX_site4873] | 6.94
ATAATATTTAGGTGTGCACACAAACATACATATATA [CACACA_site9120] | 8.81
ATGATAATTTTTTTCTCACACACAAATATTTTAATC [CACACA_site3665] | 6.93
CAATAATATATATATTGTACATTTTTTTTTATTATT [XGTACX_site3149] | 6.77
AAAGATTCTTTGAATTGTACAAATATATTTACTCAC [XGTACX_site8772] | 7.01
ATGTTCCATTTTACTTGTACTAATTTTTTCCTATCT [XGTACX_site6474] | 7.11
TATATTATTTTCTTTTGTACACATATATATCAGTGT [XGTACX_site664] | 7.07
ATAATAATAAAGTATGCATGCATATAATATAATATA [TGCATGCA_site796] | 7.13
TTTTTATTGCAATACTTATATTTTTTTATGATTAAA [TGCATGCA_negctrl_site147] | 7.01
AACGAAGCATAAAATGTTATGTATATATATAAATAT [TGCATGCA_negctrl_site304] | 7.09
TACCAAAAAAAAAAAATAATAATAAAAAAAAAAAAA [TGCATGCA_negctrl_site11] | 6.54
ATCATTTTGTGTTCAAGTACATAATGTTTTACACAA [XGTACX_site3565] | 6.76
ATGTGGAAATAGAGCACACATATATATAATATATAT [CACACA_site884] | 7.33
CATACATTATAAGATACATGCATATATCTGAACATA [TGCATGCA_site797] | 7.02
GCAAAACATTTTTAAAATAAAAATAATAAAATATAT [CACACA_negctrl_site219] | 6.81

Sequence | gcPBM binding intensity (ln)
TATTCATTAAACCATACACACATAATTTTTTTATAA [CACACA_site4618] | 7.04
ATATATTATATAAAAAGTACTAAAATAGTAAGATGT [XGTACX_site7493] | 7.37
AATGATTTTAAATGAACATAATTTATATTCATAACA [GTGCAC_negctrl_site256] | 6.7
GTGTGCCAAATTAGCACACACATATATACATGAATT [CACACA_site7346] | 7.16
ACACATAATATAAAGGTGCTATATTGTATTCATTTT [GTGCAC_site9457] | 8.36
TTTTCATACACTGCTAGTATATACTACCACTGACAT [GTGCAC_negctrl_site514] | 7.15
AAACATATATTAAGCACACACAAACAAAAAAACAAA [CACACA_site2549] | 7.13
TGCAAAAAAAAAAAAAAAAAATATATGGAAATATAT [GTGCAC_negctrl_site257] | 6.73
ACATTGAACAAAATAGTAAGCACATATATATATATA [GTGCAC_negctrl_site679] | 9.24
ACGTATCAATTTATTGGTACACATAAATATATATAT [XGTACX_site5556] | 8.68
TGATTCATTGATAAGGGTACATTTATAATTATGATA [XGTACX_site6319] | 6.94
AAAATGAATAAAAATACACACATATATGTTATTCTC [CACACA_site2671] | 6.8
AAATTGAGACAACAGGTGCATATAAATATACAGTGT [GTGCAC_site9634] | 10.6
CCAACATGCAGACGCACACACAAAAAAAGCATGCAT [CACACA_site74] | 7.15
AATAATATATATATTACACACTAATTGTATTATATA [CACACA_site448] | 6.97
TAACAATATCTAGATACACACACATATCTCTCAATC [CACACA_site8122] | 6.86
ATTTATTTATTTAGCTGTACATTTATACAGAACGAT [XGTACX_site3336] | 7
TTAATACCCGGACACACACACACAAAATAAAATACA [CACACA_site4296] | 7.3
AATTTTTGTTACAAGATGCACTTAATTTTTCTAAAT | 8.46
AATAAAAATTCAAGTTGTACTTTTTTAAAAATACAA [XGTACX_site3949] | 6.76
TGATAACCAAAAAGGGGTACATACACAAAAAAATAC [XGTACX_site1254] | 7.89
AACAACATTTGATAAACACACAGAAGTATAAATATA [CACACA_site5327] | 6.94

Sequence | gcPBM binding intensity (ln)
TACTTATTAGACTATTGTACATACATTATTAATATT [XGTACX_site7849] | 7.36
TAAAAAATTAAGCAACGTACAAATGAAAAGTATAAT [XGTACX_site1058] | 7.16
TAACAATAACTTTATACACACATAATATAAATATAT [CACACA_site7635] | 6.93
TAAAATTTTAACAAAAAAAAAAAAAAAAAAAGAAAA [CACACA_negctrl_site1335] | 6.76
TATATCATCATGTATGTACACACATACATATATTAT [CACACA_site8387] | 7.09
TACGTATTATAAATATGTACATATAATATGTATATA [XGTACX_site468] | 7
ATAAAGAAAAATAGAAGTACATATATGCATGTTAAT [XGTACX_site4480] | 7.2
AACAATAAAAATAATTGTACAAGTCTAAAAAAAATT [XGTACX_site20] | 6.86
ATAACAAAATAATAATGTACGTATAAATATAATTTA [XGTACX_site6049] | 7.29
CAAAAACATACCTACACACACAATATGTATATATAA [CACACA_site3514] | 6.94
AAATTGAAATATTCCTGTACACATTTTGAAAACTTA [XGTACX_site6101] | 6.96
AAAATATAGTAACACATACACACATATATATTTATA [CACACA_site2504] | 7.04
TTGTTATGTTTTATTTGTACGTAGGTTTCTATCAAA [XGTACX_site7636] | 7.25
TATTAAACTAAATGTAGTACATACACAAAAGAAACC [XGTACX_site606] | 7.82
TGTTTGAATATAATCACACATTTATATAAAAAGTTA [CACACA_site5237] | 6.72
TTATGAAAATATTTTTTTCGTTTGATGTATATGTTT [CACACA_negctrl_site1556] | 6.88
AAAAAATATAAATATGTAAAAAGAGAAAAAAAAAAG [GTGCAC_negctrl_site9] | 7.02
TATAAACATAAAACCAGTACATATATATTTTTCTTC [XGTACX_site212] | 6.84
ATATTTAATTCATCATGTACACAAATAAGAAACAAA [XGTACX_site8076] | 7.56
TGAAAATGGGAACCGTGTACAGGGCAGTTATAGGGG [XGTACX_site2950] | 7.27
GATTCGATCTATATATGTACACATAAATATTTTTTG [XGTACX_site7015] | 7.21
TATATATTTATTTATTGTACACTCTTTAAGAATACA [XGTACX_site2569] | 6.95

Sequence | gcPBM binding intensity (ln)
TATATATATATATATATATATATATATGTGTATGTA [TGCATGCA_negctrl_site255] | 9.4
ATACACAAGAATATGTTGCACTTTTATATTCGTATG | 7.9
AATAAAATTGACCATTCACACAAGAAAAATTAATCA [CACACA_site5636] | 6.72
AATATTTATATTAACTGTACAGAAAATATCTTTGCT [XGTACX_site8130] | 7.05
GATATATAAATTGACACACACATATATACCTATATA [CACACA_site6689] | 7.07
TTCTTTTTTTTTTTTTCATGTATATTAAACTTTTCA [TGCATGCA_negctrl_site592] | 7.05
CATAAGATTTTTACATGTACATATTTATAATATATT [XGTACX_site6578] | 7.2
AATATAAAAATGTTTACACACACACCGAAATATATT [CACACA_site8800] | 7.3
TATGCCATGGCATAATGTACATAAGTGACCTCATAA [XGTACX_site1294] | 6.96
ATATATTTAAAAAAATGTACAAATCATAAATGCAAG [XGTACX_site4230] | 7.07
TATAATGTTGATGATAGTACGTATGAGTTCAAAAAA [XGTACX_site3651] | 7.07
AGAAATTAAATGTAAGCACACATAAATTATACACAT [CACACA_site9098] | 6.89
AAAAAATTATACCAGTGTACTTTTTTGGTTTTTCTT [XGTACX_site2601] | 6.99
AAAAGAATTAATTTATGTACTAATTTCAAGAAATAA [XGTACX_site3241] | 6.93
TCCTTACACACACTTTTTTTTTTTTTTTTTTCTACA [GTGCAC_negctrl_site263] | 6.97
ATATATTATCAACTTACACACAGAAAACTATAATAA [CACACA_site6275] | 7.02
CTTTTTCCTTTATAAAGTACTTAAAATATTTAGATA [XGTACX_site4259] | 7.12
CTCGATCAAGTGTATGCATGTACCAGTGAACAAAAA [TGCATGCA_site635] | 7.05
AAAAAAAAAAATAAATGTACAAAATAATGGGGAACA [XGTACX_site8723] | 7.12
GTGAATGATTTAAGTACACACCGGTATTTATTCAAA [CACACA_site4950] | 7.09
AAAAAAAAAAAATACACACACACATATTTATTTATA [CACACA_site6483] | 6.85
TGTATTAAAAATTTGGTGCAACTTTTACATAATAAT | 10.5
